Among all 340,000 compounds or so, about 6,900 (2%) were called active. Cut-off read from the data, not from the text of the source: active = inhibition above about 30%; inactive = below that, where a call was filed. Only a part is listed here, and it is no random draw. Where no call is shown, the source filed none.
What follows are compounds tested against D(2) dopamine receptor (Homo sapiens) (UniProt P14416) (assay: HTS Assay for Allosteric Antagonists of the Human D2 Dopamine Receptor: Primary Screen for Antagonists). Settings: HEK293 TREx D2 cells, calcium flux, dopamine EC80; at 10 µM; stronger effect = higher value.
Procedure, shortened: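 Measurement of antagonist activity uses fluorescent calcium dye in inducible HEK293 T-REx D2 cells: 10 s baseline, compound addition with 180 s read, EC80 dopamine addition with a further 180 s read.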
Note: 0% is about no effect.

Sequence of UniProt P14416 (P14416 whole entry, looked up): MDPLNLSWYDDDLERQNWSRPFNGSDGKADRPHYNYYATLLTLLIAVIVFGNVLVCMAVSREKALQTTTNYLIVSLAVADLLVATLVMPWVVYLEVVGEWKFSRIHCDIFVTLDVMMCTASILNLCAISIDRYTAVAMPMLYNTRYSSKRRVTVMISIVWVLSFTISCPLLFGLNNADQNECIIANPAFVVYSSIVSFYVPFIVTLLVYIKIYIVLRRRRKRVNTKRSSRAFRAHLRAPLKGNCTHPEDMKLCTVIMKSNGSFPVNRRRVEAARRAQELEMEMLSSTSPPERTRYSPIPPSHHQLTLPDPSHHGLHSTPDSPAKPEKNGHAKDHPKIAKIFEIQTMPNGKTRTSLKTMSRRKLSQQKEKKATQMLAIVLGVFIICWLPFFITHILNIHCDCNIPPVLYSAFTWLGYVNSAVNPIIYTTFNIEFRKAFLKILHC

SMILES | inhibition
CCOC(=O)N[C@H](Cc1c[nH]c2ccccc12)C(=O)Nc1cccc(Cl)c1 | 11.7%
CCc1ccc(C2CC(=O)Nc3c2c(=O)n(C)c2ncnn32)cc1 (stereo unspecified) | 0.153%
CCOCCCN(Cc1ccco1)C(=O)c1cc2c(s1)-c1c(C)cccc1OC2 | 22.3%
COc1ccc(C(=O)c2cn(CC(=O)Nc3cc(C)ccc3C)c3nc(C)ccc3c2=O)cc1 | -1.41%
CC(C)Oc1ccc(CNC(=O)C2=Cc3ccccc3OC2)cc1 | 18.3%
CN1CCN(C(=O)c2ccc3c(c2)N(Cc2ccc(F)cc2)C(=O)c2ccccc2S3(=O)=O)CC1 | -1.45%
COc1ccc(NC(=O)CSc2nnc(-c3ccncc3)n2-c2ccccc2)cc1 | 8.2%
CCC(C)NC(=O)c1c2c(nc3ccccc13)C(=O)N(C1CCCCC1)C2 (stereo unspecified) | 12.3%
CCOC(=O)c1cc(S(=O)(=O)Nc2ccccc2)[nH]n1 | -18%
O=C(CSc1n[nH]c(-c2ccc(F)cc2)n1)N1CCN(c2ccc(F)cc2)CC1 | -9.12%
CCc1ccc(CNC(=O)C2CCN(c3nn4cc(-c5ccc(OC)cc5)nc4s3)CC2)cc1 | 2.2%
COc1ccc(C2=NC(c3ccccc3)=Nc3ccc(C)cc3N2)cc1 | 9.93%
COc1ccc(CC(=O)N2CC(=O)Nc3ccc(F)cc3C2c2ccccc2)cc1 (stereo unspecified) | 1.52%
COc1ccccc1CNC(=O)c1ccc(N2CCCC2)c(NC(=O)NCc2ccc(C)cc2)c1 | 19.2%
Cc1ccccc1CNC(=O)Cn1c(=O)c2cccn2c2cccnc21 | 6.82%
CC(=O)c1ccc(NC(=O)C2CCN(S(=O)(=O)c3ccc4[nH]c5c(c4c3)CCCCC5)CC2)cc1 | 2.71%
CCCOc1ccc(C2c3c(oc4ccccc4c3=O)C(=O)N2c2nnc(C(C)C)s2)cc1 (stereo unspecified) | 1.89%
NC(=O)c1cc(S(=O)(=O)NCc2cccc(Br)c2)cs1 | 2.25%
Cc1nc2ccn(Cc3ccco3)c(=O)c2cc1C(=O)NCc1ccc(Cl)cc1 | 10.9%
COC(=O)c1ccc(NC(=O)Cn2c(=O)oc3ccccc32)cc1 | 3.03%
Cc1ccc(CNC(=O)c2ccc3c(c2)CCN3S(=O)(=O)c2ccc(Br)cc2)cc1 | 1.99%
CCn1c(SCC(=O)Nc2cc(C)ccc2F)nnc1-c1ccccc1O | 7.34%
COc1ccc(N2CC(NC(=O)C3CCCCC3)CC2=O)cc1 (stereo unspecified) | -7.61%
CN(CC(=O)Nc1cccc(F)c1)C(=O)C1CC(=O)N(CCc2ccccc2)C1 (stereo unspecified) | active: 33.5%

SMILES | inhibition
CCN(c1ccc(OC)cc1)S(=O)(=O)c1ccc2[nH]c3c(c2c1)CCCCC3 | -17.3%
COc1ccc(-c2nc3ccccc3o2)cc1NC(=O)Cc1ccc(Cl)cc1 | 24.8%
Cc1cccc(N(C)C(=O)Cn2c(=O)oc3cc(S(=O)(=O)N4CCCCC4)ccc32)c1 | 16%
Cn1ccnc1SCC(=O)Nc1cccc(Br)c1 | -3.95%
COc1cccc(N2C(=O)C(CC(=O)Nc3cccc(F)c3)N(C3CCCC3)C2=O)c1 (stereo unspecified) | -11.7%
COC(=O)c1ccccc1NC(=O)Cn1c(=O)n(CCC(=O)NCc2ccc3c(c2)OCO3)c(=O)c2ccccc21 | 22.5%
CC1=C(C(=O)OC2CCCC2)C(c2c(F)cccc2Cl)CC(=O)N1 (stereo unspecified) | 7.28%
Cc1ccc(-c2cn3nc(N4CCCC(C(=O)NCc5ccccc5F)C4)sc3n2)cc1 (stereo unspecified) | 4.55%
Cc1ccc(-c2csc(-c3c(N)c(C(=O)c4ccc5c(c4)OCO5)n4ccccc34)n2)cc1 | 13.4%
COc1ccc(-n2c(-c3cccc(F)c3)nc3c(cnn3-c3ccc(C)cc3)c2=O)cc1 | -9.52%
Cc1ccc(Cn2nc3n(c2=O)-c2cc(Cl)ccc2OC3)cc1 | 23.3%
Cc1ccc(S(=O)(=O)N/N=C\c2cccnc2)cc1 | active: 35.3%
COc1ccc(CCNC(=O)c2ccc(-n3c(C)cc4c3CCC(C)C4)cc2)cc1OC (stereo unspecified) | 10.2%
Cc1cc(C)cc(NC(=O)COc2cccc3c(=O)n(C)ccc23)c1 | -7.69%
Cc1cc(C)c(OCC(=O)N(Cc2ccc(N(C)C)cc2)Cc2ccco2)c(C)c1 | -1.32%
O=C(NCc1ccc2c(c1)OCO2)c1ccc2c(c1)N(Cc1c(F)cccc1Cl)C(=O)c1ccccc1S2 | -3.8%
CCOc1ccc(NS(=O)(=O)c2ccc3c(c2)NC(=O)CCS3)cc1 | 16.1%
Cc1ccc(NC(=S)NC2CCN(Cc3ccccc3)CC2)cc1 | active: 83.7%
O=C(CNC(=O)c1ccc(F)cc1)OCc1cc(=O)n2ccsc2n1 | 0.446%
CCN1CCc2c(sc(NC(=O)c3ccc(S(=O)(=O)N4CCCC(C)C4)cc3)c2C(=O)OC)C1 (stereo unspecified) | -14.4%
COc1ccc(C(=O)Nc2ccc3oc(-c4cccc5c(Br)cccc45)nc3c2)cc1 | -7.26%
Cc1ccccc1Cn1c(CN2CCC(C(=O)NCc3ccc(Cl)cc3)CC2)cc2ccccc21 | 10.1%
Cc1c(Cl)cccc1NC(=O)C(=O)NCCc1csc(-c2ccc(C(F)(F)F)cc2)n1 | 15%
CCCCN(C)C(=O)c1ccc2c(=O)n3nc(Nc4cc(C)ccc4C)sc3nc2c1 | -0.129%

SMILES | inhibition
CCC(=O)N1CCCc2cc(S(=O)(=O)N3CCN(c4ncccn4)CC3)ccc21 | active: 31.3%
Cn1c(=O)[nH]c(=O)c2c1nc(N1CCOCC1)n2Cc1ccccc1 | 5.09%
CCc1cccc(NC(=O)CCc2nc3cccnc3n2Cc2ccc(OC)cc2)c1 | -2.37%
CCOC(=O)Cc1ccc(NC(=O)Nc2c[nH]c(=O)[nH]c2=O)cc1 | 24.1%
Cc1ccccc1OCC(=O)Nc1ccc(-c2nc3ccccc3o2)cc1 | -4.81%
CC(C)CCNC(=O)CN1C(=O)CSc2ccc(S(=O)(=O)N3CCC(C)CC3)cc21 | -4.05%
CN(C)c1ccc(/C=C/c2nc(-c3ccccc3O)n(-c3ccccc3)n2)cc1 | -10.9%
COc1ccc(NC(=O)[C@H]2O[C@@H]3OC(C)(C)O[C@@H]3[C@H]3OC(C)(C)O[C@H]32)c(OC)c1 | 3.07%
Cc1ccc2c(c1)c1c(c(=O)n(-c3cccc(Cl)c3)c(=O)n1CC(=O)NCC1CCCO1)n2C (stereo unspecified) | 2.37%
CCOC(=O)C1CCCN(c2nc3c(S(=O)(=O)c4ccc(CC)cc4)nnn3c3ccsc23)C1 (stereo unspecified) | -2.09%
COc1ccc(NC(=O)C2CC(=O)N(c3cccc(C)c3C)C2)cc1 (stereo unspecified) | active: 31.1%
Cc1ccccc1Oc1nc2ccccn2c(=O)c1/C=C(\C#N)c1nc2ccccc2[nH]1 | -0.0085%
CCc1cccc(C)c1NC(=O)c1cc(S(=O)(=O)N(Cc2ccc(C(=O)OC)cc2)Cc2ccc(OC)c(OC)c2)ccc1F | -14.3%
CCC(CC)C(=O)Nc1ccc2nc(SCC(=O)N3CCCC3)sc2c1 | 28.4%
COc1ccc(NC(=O)CN2C(=O)CC(c3ccc(C)c(C)c3)=Nc3ccccc32)cc1OC | 6.15%
COc1ccc(Cc2nc3ccc(C(=O)NCc4ccccc4C)cc3o2)cc1 | 10.2%
CCN(CC)CCNC(=O)Cn1ncc2c3ccccc3n(Cc3ccc(Cl)cc3)c2c1=O | -3.21%
Cc1ccc(-c2csc(-c3nc(-c4ccc(Br)s4)cs3)n2)cc1 | -27.8%
COc1ccc(NC(=O)Cn2nnc(C(=O)NCc3cccs3)c2N)cc1 | 14.4%
Cc1ccc(NC(=O)CSc2nc(=O)n(Cc3cccnc3)c3c2CCC3)cc1F | 21.7%
Cc1c(Cl)cccc1NC(=O)CN1CCN(CCO)CC1 | active: 31.3%
CC(C)(C)C1CCc2c(sc(NC(=O)c3cc4ccccc4c(=O)o3)c2C(N)=O)C1 (stereo unspecified) | -10.4%
COc1ccc(C2=NN(C(=O)CSc3nc(=O)n4cccc(C)c4n3)C(c3ccc(C)cc3)C2)cc1 (stereo unspecified) | active: 34.4%
Cc1ccc(C)c(NC(=O)Cn2c(=O)n(CCC(C)C)c(=O)c3cccnc32)c1 | -11.6%

SMILES | inhibition
COc1ccccc1NC(=O)Cn1cc(S(=O)(=O)Cc2ccccc2)c2ccccc21 | -0.157%
CCCCCOc1ccc(/C=C/C(=O)Nc2sc(C)c(C)c2C(=O)OCC)cc1OC | 6.26%
Cc1ccc(C)c(NC(=O)CN(C)S(=O)(=O)c2cccc3nsnc23)c1 | -6.46%
CCN(CC)c1nc2ccccc2nc1C(=O)Nc1ccc(C(C)=O)cc1 | 1.62%
Cc1ccc(-n2nc(C(=O)Nc3ccc(F)cc3F)c3c4ccccc4n(C)c3c2=O)cc1 | 10.8%
Cc1cccc(N(C)c2nc3ccc(C(=O)c4ccccc4)cc3n3c(C)nnc23)c1 | -19.2%
COc1ccc(NC(=O)c2ccc(-n3cccn3)c([N+](=O)[O-])c2)cc1 | active: 44.6%
Cc1c(C)c2ccc(OCC(=O)Nc3ccccn3)cc2oc1=O | active: 35.9%
CC1CCN(c2nn3c(=O)c(C(=O)NCCCOC(C)C)cnc3s2)CC1 | 6.81%
Cc1c(C(=O)OCc2ccccc2)[nH]c2c1C(=O)CC(c1ccc(C(C)(C)C)cc1)C2 (stereo unspecified) | -10.8%
CCc1cccc(NC(=O)c2cc3c(=O)n(Cc4ccccc4)ccc3nc2C)c1 | 14.6%
CC(C)c1ccc(NC(=O)C2CCN(C(=O)c3ccc(F)cc3)CC2)cc1 | -15%
COc1cc(C(=O)Nc2ccccc2-c2nc(-c3ccccc3)no2)cc(OC)c1OC | -12.8%
Cc1ccc(CN2CCCn3nc(C(=O)NCCc4ccccc4C)cc3C2=O)cc1 | 7.44%
OCCN(Cc1ccccc1)CC1CC2C=CC1C2 (stereo unspecified) | active: 37.1%
Cc1ccc(-c2nc(C)c(CCNC(=O)c3cccs3)s2)cc1 | 25.8%
CC(=O)c1cccc(NC(=O)C2CCN(S(=O)(=O)c3ccc4c(c3)CCCN4C(C)=O)CC2)c1 | 5.84%
c1ccc(-c2ncc(CN3CCN(c4ccccn4)CC3)[nH]2)cc1 | active: 88.7%
Cc1ccc(-n2c(C)cc(C(=O)C(=O)Nc3ccccc3)c2C)c(C)c1 | 10.5%
CC(CCc1ccccc1)NCC#N (stereo unspecified) | active: 33.6%
CC(=O)Nc1nc2n(n1)C(c1ccc(F)cc1)C=C(c1ccc(Cl)cc1)N2 (stereo unspecified) | 4.82%
CC(C(=O)NCCSCc1cccc(Cl)c1)N(c1ccccc1)S(C)(=O)=O (stereo unspecified) | 0.622%
COc1ccc(CCNC(=O)CCn2c(=O)c3ccccc3n(Cc3ccccc3F)c2=O)cc1OC | -21.7%
Cc1cccc(C(=O)OCC(=O)N2CCCCCC2)c1 | active: 30.7%

Reference: PubChem BioAssay AID485344 (National Center for Advancing Translational Sciences (NCATS), 2010)
